# Test results reported in US20190225650A1, “PEPTIDOMIMETIC MACROCYCLES AND USE THEREOF IN REGULATING HIF1ALPHA” (AILERON THERAPEUTICS, INC., priority 2013, published 2019).
# At least one structure is not confirmed: it was looked up by name or label, or the drawing left a doubt. Bridge positions count the residues as written; N and C are the ends. Square brackets hold non-standard residues; d marks the D form. Peptide text beside a SMILES is read from it. Bpa = N[C@@H](Cc1ccc(C(=O)c2ccccc2)cc1)C(=O)O; S5 = C=CCCC[C@](C)(N)C(=O)O; Nle = CCCC[C@H](N)C(=O)O; Dap = NC[C@H](N)C(=O)O
# Target: T1, flag-tagged HIF1α (AA 786-826) / His6-tagged p300 (AA 323-423) complex (Homo sapiens, UniProt Q09472)
# T1 construct: His6-tagged p300 (AA 323-423); made in house; host or cells: E. coli (pETDuet vector)
# Assay: HIF1α p300 displacement assay (TR FRET, +CHAPS)
# Assay type: binding
# Details: read-out: IC50 (nM) (HIF1α_p300 Displacement + CHAPS)
# Method: The ability of peptides to displace HIF1α c-terminal trans-activation domain from p300-CH was measured by a TR FRET assay. A complex of flag-tagged HIF1α (AA 786-826) and His6-tagged p300 (AA 323-423) was co-expressed using pETDuet vector (EMDMillipore, Bellrica Mass.) and purified from E. coli in the presence of 0.1 mM ZnSO4. The complex was diluted to 300 nM final in complete assay media and competitor peptides were added. The complete assay media contained 150 mM NaCl (Sigma +S5150 or equivalent), 20 mM HEPES pH 7.4 (Boston Bioproducts, Ashland, Mass.; #BB-2076), 7.5 mM CHAPS (Thermo #28300 or equivalent), and 1 mM DTT. Protein and peptide were incubated at room temperature for 1 hour before the addition of anti-Flag-K and anti-6×HIS-D2 (CisBio, Bedford Mass.) HTRF reconstitution buffer (50 mM Phosphate pH 7, 0.8 Potassium Flouride, BSA 0.2%)^1 to a final concentration of 0.5 μM and 4 nM respectively. The reaction continued for an additional two hours at room temperature. The reaction was read on a TECAN F500 plate reader with settings recommended by CisBio. The ratio of donor to acceptor fluorescence was calculated. The resulting data was analyzed with Graphpad Prism 5.0. IC50 values were calculated for both proteins using the One Site Fit-LogIC50 equation and presented in the column “IC50 (nM) (HIF1α_p300 Displacement+CHAPS)” of Table 6. ^1 Cisbio USA, Bedford, Mass.; 61HISDLB (lot 007A), 61FG2KLB (024A), HTRF Buffer (62RB3RDF)
# T1 sequence (Q09472 323-423, one chain of several): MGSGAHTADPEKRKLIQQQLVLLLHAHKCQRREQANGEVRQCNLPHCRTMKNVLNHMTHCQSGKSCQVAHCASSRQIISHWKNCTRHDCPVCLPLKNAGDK
row,SMILES,IC50 [nM]
1,CCCC[C@H](NC(=O)[C@H](CC(C)C)NC(=O)[C@@H](NC(=O)[C@H](CCC(=O)O)NC(=O)[C@H](CCC(=O)O)NC(=O)[C@H](CC(=O)O)NC(=O)[C@@H](NC(=O)[C@H](Cc1ccccc1)NC(C)=O)[C@@H](C)CC)C(C)C)C(=O)N[C@@]1(C)CCCC=CCCC[C@@](C)(C(=O)N[C@@H](CCCC)C(=O)N[C@@H](C)C(=O)N[C@@H](CC(C)C)C(=O)N[C@@H](CC(=O)O)C(=O)N[C@@H](CCCNC(=N)N)C(=O)N[C@H](C(N)=O)[C@@H](C)CC)NC(=O)[C@H](Cc2ccc(C(=O)c3ccccc3)cc2)NC(=O)[C@H](C(C)C)NC(=O)[C@H](CC(C)C)NC1=O [SP-73] (Ac-FIDEEVL[Nle][S5]LV[Bpa][S5][Nle]ALDRI-NH2; staple 9-13),400 to 700
2,"CCCC[C@H](NC(=O)[C@H](CCC(=O)O)NC(=O)[C@@H](NC(=O)[C@]1(C)CCCC=CCCC[C@](C)(NC(=O)[C@@H](NC(=O)[C@H](CCC(=O)O)NC(=O)[C@H](CCC(=O)O)NC(=O)[C@H](CC(=O)O)NC(=O)[C@@H](NC(=O)[C@H](CC(N)=O)NC(=O)[C@@H](NC(=O)[C@H](CCC(N)=O)NC(=O)[C@H](CC(=O)O)NC(=O)[C@H](CC(C)C)NC(=O)[C@]2(C)CCCC=CCCC[C@](C)(NC(=O)[C@H](CCC(=O)O)NC(=O)CNC(=O)[C@H](CCC(N)=O)NC(=O)[C@H](CC(C)C)NC(=O)[C@H](CC(C)C)NC(C)=O)C(=O)N[C@@H](CC(C)C)C(=O)N[C@@H](CC(C)C)C(=O)N[C@@H](CCCNC(=N)N)C(=O)N2)C(C)C)[C@@H](C)CC)C(C)C)C(=O)N[C@@H](CCCC)C(=O)N[C@@H](CO)C(=O)N[C@@H](CC(C)C)C(=O)N1)[C@@H](C)CC)C(=O)NCC(N)=O [SP-303] (Ac-LLQGE[S5]LLR[S5]LDQVNIDEEV[S5][Nle]SL[S5]IE[Nle]G-NH2; staple 6-10, 21-25)",> 700
3,CCCC[C@H](NC(=O)[C@H](CC(C)C)NC(=O)[C@@H](NC(=O)[C@H](CCC(=O)O)NC(=O)[C@H](CCC(=O)O)NC(=O)[C@H](CC(=O)O)NC(=O)[C@@H](NC(=O)[C@H](Cc1ccccc1)NC(C)=O)[C@@H](C)CC)C(C)C)C(=O)N[C@@]1(C)CCCC=CCCC[C@@](C)(C(=O)N[C@@H](CCCC)C(=O)N[C@@H](C)C(=O)N[C@@H](CC(C)C)C(=O)N[C@@H](CC(=O)O)C(=O)N[C@@H](CN)C(=O)N[C@H](C(N)=O)[C@@H](C)CC)NC(=O)[C@H]([C@@H](C)CC)NC(=O)[C@H](C(C)C)NC(=O)[C@H](CC(C)C)NC1=O [SP-67] (Ac-FIDEEVL[Nle][S5]LVI[S5][Nle]ALD[Dap]I-NH2; staple 9-13),400 to 700
4,CCCC[C@H](NC(=O)[C@H](CC(C)C)NC(=O)[C@@H](NC(=O)[C@H](CCC(=O)O)NC(=O)[C@H](CCC(=O)O)NC(=O)[C@H](CC(=O)O)NC(=O)[C@@H](NC(=O)[C@H](Cc1ccccc1)NC(C)=O)[C@@H](C)CC)C(C)C)C(=O)N[C@@]1(C)CCCC=CCCC[C@@](C)(C(=O)N[C@@H](CCCC)C(=O)N[C@@H](C)C(=O)N[C@@H](CC(C)C)C(=O)N[C@@H](CO)C(=O)N[C@@H](CCCNC(=N)N)C(=O)N[C@H](C(N)=O)[C@@H](C)CC)NC(=O)[C@H]([C@@H](C)CC)NC(=O)[C@H](C(C)C)NC(=O)[C@H](CC(C)C)NC1=O [SP-57] (Ac-FIDEEVL[Nle][S5]LVI[S5][Nle]ALSRI-NH2; staple 9-13),400 to 700
5,CC[C@H](C)[C@H](NC(=O)[C@H](Cc1ccccc1)NC(C)=O)C(=O)N[C@@H](CC(=O)O)C(=O)N[C@@H](CCC(=O)O)C(=O)N[C@@H](CCC(=O)O)C(=O)N[C@H](C(=O)N[C@@H](CC(C)C)C(=O)N[C@@H](CCSC)C(=O)N[C@@]1(C)CCCC=CCCC[C@@](C)(C(=O)N[C@@H](CCSC)C(=O)N[C@@H](C)C(=O)N[C@@H](CC(C)C)C(=O)N[C@@H](CC(=O)O)C(=O)N[C@@H](CCCNC(=N)N)C(=O)N[C@H](C(=O)N[C@@H](CCCCN)C(=O)N[C@@H](CCC(=O)O)C(=O)N[C@@H](CC(C)C)C(=O)N2CCC[C@H]2C(=O)N[C@@H](CCC(=O)O)C(=O)N[C@@H](CC(C)C)C(=O)N[C@@H](Cc2c[nH]c3ccccc23)C(=O)N[C@@H](CC(C)C)C(N)=O)[C@@H](C)CC)NC(=O)[C@H]([C@@H](C)CC)NC(=O)[C@H](C(C)C)NC(=O)[C@H](CC(C)C)NC1=O)C(C)C [SP-3] (Ac-FIDEEVLM[S5]LVI[S5]MALDRIKELPELWL-NH2; staple 9-13),200 to 400
6,CCCC[C@H](NC(=O)[C@H](CC(C)C)NC(=O)[C@@H](NC(=O)[C@H](C)NC(=O)[C@H](CCC(=O)O)NC(=O)[C@H](CC(=O)O)NC(=O)[C@@H](NC(=O)[C@H](Cc1ccccc1)NC(C)=O)[C@@H](C)CC)C(C)C)C(=O)N[C@@]1(C)CCCC=CCCC[C@@](C)(C(=O)N[C@@H](CCCC)C(=O)N[C@@H](C)C(=O)N[C@@H](CC(C)C)C(=O)N[C@@H](CC(=O)O)C(=O)N[C@@H](CCCNC(=N)N)C(=O)N[C@H](C(N)=O)[C@@H](C)CC)NC(=O)[C@H]([C@@H](C)CC)NC(=O)[C@H](C(C)C)NC(=O)[C@H](CC(C)C)NC1=O [SP-13] (Ac-FIDEAVL[Nle][S5]LVI[S5][Nle]ALDRI-NH2; staple 9-13),200 to 400
7,CCCC[C@H](NC(=O)[C@H](CC(C)C)NC(=O)[C@@H](NC(=O)[C@H](CCC(=O)O)NC(=O)[C@H](CCC(=O)O)NC(=O)[C@H](CC(=O)O)NC(=O)[C@@H](NC(=O)[C@H](Cc1ccccc1)NC(C)=O)[C@@H](C)CC)C(C)C)C(=O)N[C@@]1(C)CCCC=CCCC[C@@](C)(C(=O)N[C@@H](CCCC)C(=O)N[C@@H](C)C(=O)N[C@@H](CC(C)C)C(=O)N[C@@H](CC(=O)O)C(=O)N[C@@H](CCCNC(=N)N)C(=O)N[C@H](C(N)=O)[C@@H](C)CC)NC(=O)[C@H]([C@@H](C)CC)NC(=O)[C@H](C(C)C)NC(=O)[C@H](CO)NC1=O [SP-51] (Ac-FIDEEVL[Nle][S5]SVI[S5][Nle]ALDRI-NH2; staple 9-13),400 to 700

# Further lines, results first:
row,IC50 [nM],SMILES
1,200 to 400,CCCC[C@H](NC(=O)[C@H](CC(C)C)NC(=O)[C@@H](NC(=O)[C@H](CO)NC(=O)[C@H](CCC(=O)O)NC(=O)[C@H](CC(=O)O)NC(=O)[C@@H](NC(=O)[C@H](Cc1ccccc1)NC(C)=O)[C@@H](C)CC)C(C)C)C(=O)N[C@@]1(C)CCCC=CCCC[C@@](C)(C(=O)N[C@@H](CCCC)C(=O)N[C@@H](C)C(=O)N[C@@H](CC(C)C)C(=O)N[C@@H](CC(=O)O)C(=O)N[C@@H](CCCNC(=N)N)C(=O)N[C@H](C(N)=O)[C@@H](C)CC)NC(=O)[C@H]([C@@H](C)CC)NC(=O)[C@H](C(C)C)NC(=O)[C@H](CC(C)C)NC1=O [SP-47] (Ac-FIDESVL[Nle][S5]LVI[S5][Nle]ALDRI-NH2; staple 9-13)
2,200 to 400,CCCC[C@H](NC(=O)[C@H](CC(C)C)NC(=O)[C@@H](NC(=O)[C@H](CCC(=O)O)NC(=O)[C@H](CCC(=O)O)NC(=O)[C@H](CC(=O)O)NC(=O)[C@@H](NC(=O)[C@H](Cc1ccccc1)NC(C)=O)[C@@H](C)CC)C(C)C)C(=O)N[C@@]1(C)CCCC=CCCC[C@@](C)(C(=O)N[C@@H](CCCC)C(=O)N[C@@H](C)C(=O)N[C@@H](CC(C)C)C(=O)N[C@@H](CC(=O)O)C(=O)N[C@@H](CCC(=O)O)C(=O)N[C@H](C(N)=O)[C@@H](C)CC)NC(=O)[C@H]([C@@H](C)CC)NC(=O)[C@H](C(C)C)NC(=O)[C@H](CC(C)C)NC1=O [SP-41] (Ac-FIDEEVL[Nle][S5]LVI[S5][Nle]ALDEI-NH2; staple 9-13)
3,200 to 400,CCCC[C@H](NC(=O)[C@H](CCC(=O)O)NC(=O)[C@@H](NC(=O)[C@@H](NC(=O)[C@H](CC(C)C)NC(=O)[C@]1(C)CCCC=CCCC[C@](C)(NC(=O)[C@H](CCC(=O)O)NC(=O)[C@H](CC(=O)O)NC(=O)[C@@H](NC(=O)[C@H](Cc2ccccc2)NC(C)=O)[C@@H](C)CC)C(=O)N[C@@H](C(C)C)C(=O)N[C@@H](CC(C)C)C(=O)N[C@@H](CCCC)C(=O)N1)C(C)C)[C@@H](C)CC)C(=O)N[C@@H](C)C(=O)N[C@@H](CC(C)C)C(=O)N[C@@H](CC(=O)O)C(=O)N[C@@H](CCCNC(=N)N)C(=O)N[C@H](C(=O)N[C@@H](CCCCN)C(=O)N[C@@H](CCC(=O)O)C(=O)N[C@@H](CC(C)C)C(=O)N1CCC[C@H]1C(=O)N[C@@H](CCC(=O)O)C(=O)N[C@@H](CC(C)C)C(=O)N[C@@H](Cc1c[nH]c2ccccc12)C(=O)N[C@@H](CC(C)C)C(N)=O)[C@@H](C)CC [SP-106] (Ac-FIDE[S5]VL[Nle][S5]LVIE[Nle]ALDRIKELPELWL-NH2; staple 5-9)
4,≤ 200,CC[C@H](C)[C@H](NC(C)=O)C(=O)N[C@@H](CC(=O)O)C(=O)N[C@@H](CCC(=O)O)C(=O)N[C@@H](CCC(=O)O)C(=O)N[C@H](C(=O)N[C@@H](CC(C)C)C(=O)N[C@@H](CCSC)C(=O)N[C@@]1(C)CCCC=CCCC[C@@](C)(C(=O)N[C@@H](CCSC)C(=O)NCC(=O)N[C@@H](CC(C)C)C(=O)N[C@@H](CC(=O)O)C(=O)N[C@@H](CCCNC(=N)N)C(=O)N[C@H](C(=O)N[C@@H](CCCCN)C(=O)N[C@@H](CCC(=O)O)C(=O)N[C@@H](CC(C)C)C(=O)N2CCC[C@H]2C(=O)N[C@@H](CCC(=O)O)C(=O)N[C@@H](CC(C)C)C(=O)N[C@@H](Cc2c[nH]c3ccccc23)C(=O)N[C@@H](CC(C)C)C(N)=O)[C@@H](C)CC)NC(=O)[C@H]([C@@H](C)CC)NC(=O)[C@H](C(C)C)NC(=O)[C@H](CC(C)C)NC1=O)C(C)C [SP-86] (Ac-IDEEVLM[S5]LVI[S5]MGLDRIKELPELWL-NH2; staple 8-12)
